# From the supplement of paper PMC4466236
# The full ranking holds about 33,000 sequences; the median of “E-score (dimensionless, -0.5 to 0.5)” is about -0.058, and the highest 2% start at about 0.35. Some of the results follow.
# Tested on: MvaT
# Test: PBM 8-mer E-score (mean of HK and ME arrays) (E-score (dimensionless, -0.5 to 0.5)); higher = stronger relative binding preference; most listed sequences are background and not binding sites
# How it was run: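 Reported values are rank-based E-scores, taken as the mean of two universal arrays and parsed with a custom script. Each 8-mer score falls between -0.5 and 0.5. The arrays, ME and HK, were double-stranded 60-mers with a constant 25-mer primer region and a variable 35-mer region covering all 8-mers. They were probed, by an earlier protocol, with full-length P. aeruginosa MvaT carrying an N-terminal glutathione S-transferase fusion.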
row,Sequence,PBM 8-mer E-score
1,AGTCAACA,0.067
2,AAGTCGTA,0.0511
3,ATATATCG,0.442
4,GGGGGCAA,-0.259
5,ACTCCCTG,-0.187
6,CAGACCTC,-0.201
7,CCGAGTAC,0.0211
8,CCTATAAC,0.186
9,TACGGCGA,-0.204
10,GTACAATA,0.309
11,AGAGCATC,-0.137
12,GGCGGCGA,-0.157
13,CGCTTCAG,-0.164
14,CGAGGTAG,-0.121
15,AACCTGAG,-0.107
16,CTCAACGC,-0.248
17,AAATGACG,0.166
18,GCACCTCA,-0.202
19,CATCTTAA,0.134
20,AAGGGAGG,-0.339
21,AAGGCGGA,-0.167
22,CGTCGACG,-0.164
23,GTAGTTGA,0.153
24,ACAACCCA,-0.0175
25,AGTGCATC,-0.11

row,Sequence,PBM 8-mer E-score
1,ATGATGAG,0.0335
2,CAGCACGC,-0.301
3,CGCACCCA,-0.0985
4,GTCTACTA,0.0723
5,ACAACGGC,-0.0149
6,CCAGGATA,-0.0314
7,CATGCGGA,-0.0548
8,AGTGCACC,-0.0824
9,ACACACAG,0.204
10,ACGTTATA,0.339
11,ACGGCGCA,-0.237
12,CGAAAGAC,-0.0962
13,GGTGTAAC,0.0209
14,ATCCCACA,0.123
15,ATTCAGCC,0.00653
16,ACGGGGTC,-0.337
17,CTTTTACA,0.0261
18,CATTAGTC,0.000526
19,ACCGTTGG,-0.272
20,ACATGAGG,-0.121
21,GAATATGA,0.19
22,AGGGTCTA,-0.248
23,GCAGGCCA,-0.293
24,ATGCACGG,0.0298
25,CCCACGGC,-0.248

row,Sequence,PBM 8-mer E-score
1,GAAAGAGC,-0.113
2,CCCAAACG,0.0684
3,AAATCGTG,-0.00219
4,CTGACCTC,-0.26
5,AGTAGTTG,0.203
6,TACCGCGA,0.0283
7,GTGAAAGA,0.0714
8,CTTGTATC,-0.101
9,GCCGGACC,-0.206
10,ATCAGAAG,0.0934
11,AGGCAGCG,-0.221
12,CACCTCAC,-0.202
13,GTAGGGCA,-0.179
14,ATCCCTTG,-0.144
15,CAAGGAAG,-0.202
16,GAGATACC,-0.0827
17,GATGTCCA,-0.0647
18,TGAGTGAA,0.0309
19,AGGCGTTG,-0.093
20,ACACCTCC,-0.0337
21,GTGGATCA,-0.0325
22,ATACAATA,0.372
23,ACCCTCGC,-0.152
24,CATGAGAG,-0.157
25,GCGGATGA,-0.235

row,Sequence,PBM 8-mer E-score
1,ACCAATCT,0.172
2,CTGATGAC,-0.127
3,CAGATTCC,-0.157
4,CGCTAATC,0.0307
5,CCGTTAGC,-0.209
6,AACCTCCC,-0.253
7,CGGTGATA,0.0816
8,GGAATTTA,0.175
9,AAGCAACT,0.0197
10,CTATCGCC,-0.136
11,AAAAAACG,0.145
12,GATAGAGA,0.11
13,ACCGGAAT,0.103
14,CAAATGAG,0.0159
15,GAACGGAA,-0.124
16,AGGCCGCG,-0.184
17,CAAACTCG,0.0117
18,AGTATGAG,0.0253
19,CGTTAGAC,-0.175
20,ATTCGCAC,0.113
21,AATGGTTG,-0.0297
22,AGCCCGTC,-0.156
23,AAAACGAA,0.197
24,CGGATGCC,-0.285
25,AATATTGG,0.278

row,Sequence,PBM 8-mer E-score
1,CACATATA,0.405
2,TGAAGTCA,-0.0874
3,CATTGATA,0.146
4,GCCACCCC,-0.362
5,ACAGACGT,-0.13
6,CATGAACA,0.00134
7,AATTCTCC,0.0595
8,CCCTGGAC,-0.282
9,GCCTATTA,0.0822
10,CACGACAG,-0.183
11,AATAACAG,0.273
12,CAACAGGA,0.0126
13,ACCGCACT,0.0223
14,CCTATTTA,0.212
15,AGGAACCC,-0.169
16,ACCTCGCT,-0.247
17,ATACCCGC,-0.00464
18,CTACGGGA,-0.153
19,AGTCGAAG,-0.0804
20,GTTCGAAC,0.153
21,CTTAAGGA,-0.00982
22,ATGCTCTC,-0.108
23,ACGTGGCG,-0.144
24,GGTGCACA,0.00341
25,ATCGAAAG,0.0954

row,Sequence,PBM 8-mer E-score
1,AAACATTT,0.237
2,AAGACAGA,0.0184
3,TATATAGA,0.434
4,AGGTGCGG,-0.222
5,CATAGTGC,-0.0608
6,GGTTTGAA,0.062
7,CGCGGAGC,-0.246
8,ATATTCCG,0.287
9,AAGTTAGC,0.22
10,CAACGTAG,0.0178
11,ATACGACG,0.0517
12,GCAGACGA,-0.216
13,CCGTTAGA,-0.0162
14,TGTGCACA,-0.0015
15,CCCGTTGC,-0.103
16,GCTGCGAC,-0.24
17,GCAAGTTA,0.34
18,GCGGCACC,-0.219
19,CGCTCTTA,0.0777
20,CTGACCCA,-0.255
21,ACGACAAT,0.148
22,AAGGTGGT,-0.0687
23,ACCACTAA,0.135
24,GCATGATA,0.0908
25,CCAGTCAG,-0.0925

row,Sequence,PBM 8-mer E-score
1,CGAACAAG,-0.0762
2,ATTAGAGA,0.0776
3,AGTGTGTC,-0.0092
4,CGCAAGGA,-0.231
5,GGGCTATA,-0.122
6,ACACCCGT,-0.138
7,GTCCGAAA,-0.0129
8,CGGCTTAC,-0.203
9,AAGGAAAT,-0.0477
10,ATCTGTCC,-0.0306
11,AAGAACAG,-0.0254
12,AGTTGTAC,0.163
13,CGAGAGTC,-0.234
14,CGCAGCAG,-0.21
15,GTGCCGAA,-0.111
16,AGGCAGGA,-0.151
17,GACAGCAC,-0.193
18,GACAGAAA,-0.102
19,AGCGGGTC,-0.207
20,CAAAGAAG,0.0159
21,CCATGGAG,-0.231
22,CCTAGCCA,-0.128
